The source of these data is the supplement of paper PMC3334620.

Whole data set: some 33,000 sequences, median “E-score (-0.5 to 0.5)” near -0.021, cut for the highest 2% near 0.32. The list shows a part of the results.

The experiment deals with T1, Zap1 (UniProt P47043).
T1 sequence: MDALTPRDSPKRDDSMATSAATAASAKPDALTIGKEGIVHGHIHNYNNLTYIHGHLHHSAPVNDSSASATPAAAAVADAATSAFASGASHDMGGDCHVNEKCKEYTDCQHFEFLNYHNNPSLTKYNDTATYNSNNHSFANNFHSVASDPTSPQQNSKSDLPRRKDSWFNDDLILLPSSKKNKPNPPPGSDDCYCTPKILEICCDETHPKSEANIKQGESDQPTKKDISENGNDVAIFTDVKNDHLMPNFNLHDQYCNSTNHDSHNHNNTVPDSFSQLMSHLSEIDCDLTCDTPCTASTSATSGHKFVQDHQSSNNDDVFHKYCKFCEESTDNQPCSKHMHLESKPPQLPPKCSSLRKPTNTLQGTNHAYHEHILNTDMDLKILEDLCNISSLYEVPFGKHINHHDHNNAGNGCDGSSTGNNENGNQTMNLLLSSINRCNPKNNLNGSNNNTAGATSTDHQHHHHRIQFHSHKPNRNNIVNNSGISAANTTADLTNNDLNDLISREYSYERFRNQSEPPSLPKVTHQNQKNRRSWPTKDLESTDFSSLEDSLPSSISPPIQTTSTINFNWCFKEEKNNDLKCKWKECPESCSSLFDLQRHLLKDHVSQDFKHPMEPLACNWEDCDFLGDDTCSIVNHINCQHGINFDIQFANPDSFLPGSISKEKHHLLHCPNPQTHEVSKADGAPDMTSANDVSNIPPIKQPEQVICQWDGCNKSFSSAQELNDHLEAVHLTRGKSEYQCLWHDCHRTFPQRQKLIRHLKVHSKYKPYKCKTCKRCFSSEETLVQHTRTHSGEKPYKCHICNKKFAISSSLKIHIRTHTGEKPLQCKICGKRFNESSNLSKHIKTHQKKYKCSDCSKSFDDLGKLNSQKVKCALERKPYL
Briefly: PBM E-score (8-mer binding enrichment) (E-score (-0.5 to 0.5)); higher = stronger / more preferred TF binding; most listed sequences are background and not binding sites. The conditions noted are these: protein concentration: 200 nM; construct: GST-full length. In outline:
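Using PURExpress in vitro transcription/translation, GST-tagged yeast transcription factors were made in full-length or DNA-binding-domain form. These were applied at about 100-200 nM to double-stranded universal all-10-mer Agilent arrays, and bound protein was detected with fluorescent anti-GST. Scans were normalised with masliner before the Universal PBM Analysis Suite assigned E-scores to ungapped eight-base words pooled with their reverse complements.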
As for AACGATGG, the “PBM E-score” value is -0.0888. To ACAGAACT belongs 0.00266. ACCATGAC: the “PBM E-score” value is 0.232. Consider AAGTCTAG, for which the “PBM E-score” value was -0.264. With ACACAGTA the figure was 0.0878; with ATTTGACC, 0.172; with GCACCTGA, 0.0331. For GCAAGGAC, the “PBM E-score” value was -0.111. With AAGACAAC the figure was 0.23. GCGGAAAA: the “PBM E-score” value was -0.0196. With ACCTTTAC the figure was 0.307. With GGCGGTGA the figure was -0.101; with TATCAACA, 0.115. Consider TAACTTAA, for which the “PBM E-score” value was found to be 0.202. Regarding CGCGCCCA, the “PBM E-score” value came to 0.117. With GCAGTCGA the figure was -0.184; with ACGGCTAA, -0.0161. To CTTAATAA belongs 0.0375.

Regarding GAGACAAA, the “PBM E-score” value was -0.173. As for AACAGTGC, the “PBM E-score” value was -0.151.

Regarding GAAATAAC, the “PBM E-score” value is 0.221.

Consider CACGAGTG, for which the “PBM E-score” value is -0.0272. With ACAGAAAG the figure was 0.11; with AGAGTGTC, 0.151; with AGCACATG, 0.0785. With CAGGTCCC, the “PBM E-score” value came out at 0.0637. Take GTATAGTA: the “PBM E-score” value was found to be 0.0617.

ATATGCAT: the “PBM E-score” value is -0.0211. On to CTCAAAGA, for which the “PBM E-score” value came out at 0.0384. Consider CCTCACAA, for which the “PBM E-score” value is 0.202. With AATCTCGT the figure was -0.067; with TAAAAATA, 0.267. With ATGAAGTA, the “PBM E-score” value was 0.043.

For AGTTCAGC, the “PBM E-score” value was -0.273. With GTCGTCAA the figure was 0.00042; with CGATTGGA, -0.0902.

As for GAATATAC, the “PBM E-score” value was -0.0293. With AATCGACG the figure was -0.0961; with ACTATAAA, 0.166. To GGGCACTA belongs -0.0582.

For ATATCTTG, the “PBM E-score” value was -0.023.

Consider AACAACAG, for which the “PBM E-score” value was -0.0493. To CAAGGACA belongs -0.0888; to CTGGTAGC, -0.014; to CATAGTCG, -0.103. To ACCCTCCG belongs 0.228; to CGTATTGA, 0.13. In the case of AAGAATGC, the “PBM E-score” value is -0.013. With ACCGGACG the figure was 0.124; with AGCGCTTG, -0.18; with GTGGTAAC, 0.36. With CGTCAAAA the figure was 0.121; with ATATGGAA, -0.174. With ATGTGTGC, the “PBM E-score” value was -0.333. With CTTGCGGA the figure was 0.00423; with TAGTGCAA, 0.036; with CATAACGA, -0.0645. Take CGCAATAA: the “PBM E-score” value came out at 0.174.

Turning to ACGTAACA, the “PBM E-score” value was found to be 0.157. Consider ATCTAAGA, for which the “PBM E-score” value amounted to 0.0622. For GGACCGAA, the “PBM E-score” value was 0.0782.

Turning to ACGGCCGT, the “PBM E-score” value came to 0.00961.

AAGGGAAC: the “PBM E-score” value is 0.0495. Regarding ATTACAGG, the “PBM E-score” value was determined as 0.218. As for ATGACAGA, the “PBM E-score” value is -0.0197. In the case of ACATATAA, the “PBM E-score” value was found to be 0.239. With GTTAGCCA the figure was -0.0438; with AACTACGT, -0.123. On to GGATGCAC, for which the “PBM E-score” value was -0.113. With GCCGGCAC the figure was -0.0403; with AGTTGGTC, 0.0383. As for ATTCGAAA, the “PBM E-score” value was 0.134. For GGGGCCAC, the “PBM E-score” value came to 0.0811. Turning to AACGCCCT, the “PBM E-score” value is -0.0779. Take ACGCTCGG: the “PBM E-score” value was -0.00542. To CGGAGGAG belongs -0.2.

On to CAACAGCG, for which the “PBM E-score” value was -0.197. As to CAAATCGC, the “PBM E-score” value was -0.12.

Take GAGGGACC: the “PBM E-score” value came out at 0.0579.

As for CTTAAGTC, the “PBM E-score” value stood at 0.0161. For CAAGGAGA, the “PBM E-score” value was -0.191. Regarding AAAACGAT, the “PBM E-score” value worked out at 0.0614.

With AGCGACAT, the “PBM E-score” value was -0.115. To CCGAACCG belongs -0.0432.

As for ATTATACA, the “PBM E-score” value was determined as 0.0605. With CCTCCAAC the figure was -0.0378.
